The antibiotic and cytotoxicity screens of Wong et al. (2023)
This is one part of the list.

Legend:
[1] = test system: HSkMC (human skeletal muscle cells); assay: cytotoxicity call (relative viability < 0.9); conditions: 10 µM
[2] = test system: HepG2; assay: cytotoxicity call (relative viability < 0.9); conditions: 10 µM
[3] = test system: S. aureus RN4220; assay: growth inhibition call (relative growth <= 0.2); conditions: 50 µM

Cc1cccc(S(=O)(=O)N2C[C@@H](O)COC[C@@H]3O[C@H](CC(=O)NCc4ccc5c(c4)OCO5)CC[C@H]32)c1
inactive: cytotoxicity call [1] | cytotoxicity call [2] | growth inhibition call [3]

Cc1cc(C(=O)Nc2cccc3c2O[C@H](CN(C)S(C)(=O)=O)[C@H](C)CN([C@H](C)CO)C3=O)n(C)n1
inactive: cytotoxicity call [1] | cytotoxicity call [2] | growth inhibition call [3]

C[C@@H]1CCCCO[C@@H](CN(C)C(=O)Nc2ccc(F)cc2)[C@@H](C)CN([C@H](C)CO)C(=O)c2cc(NS(=O)(=O)c3cccs3)ccc2O1
inactive: cytotoxicity call [1] | cytotoxicity call [2] | growth inhibition call [3]

C[C@@H]1CCCCO[C@@H](CN(C)S(=O)(=O)c2ccccc2)[C@@H](C)CN([C@@H](C)CO)C(=O)c2cc(NC(=O)Nc3ccc(C(F)(F)F)cc3)ccc2O1
inactive: cytotoxicity call [1] | cytotoxicity call [2] | growth inhibition call [3]

C[C@H]1CN([C@@H](C)CO)C(=O)Cc2cc(NC(=O)Cn3cnnn3)ccc2O[C@@H]1CN(C)Cc1ccccc1
inactive: cytotoxicity call [1] | cytotoxicity call [2] | growth inhibition call [3]

COc1ccc(S(=O)(=O)Nc2ccc3c(c2)CC(=O)N([C@H](C)CO)C[C@H](C)[C@H](CN(C)S(=O)(=O)c2ccc(F)cc2)O3)cc1
inactive: cytotoxicity call [1] | cytotoxicity call [2] | growth inhibition call [3]

CNC(=O)NCc1ccc2c(c1)OCO2
inactive: cytotoxicity call [1] | cytotoxicity call [2] | growth inhibition call [3]

CC(C)NC(=O)N(C)C[C@@H]1Oc2c(NS(=O)(=O)c3ccc(F)cc3)cccc2C(=O)N([C@@H](C)CO)C[C@@H]1C
inactive: cytotoxicity call [1] | cytotoxicity call [2] | growth inhibition call [3]

COc1ccc(NC(=O)N(C)C[C@H]2Oc3ncc(C#C[C@@H](C)O)cc3C(=O)N([C@H](C)CO)C[C@H]2C)cc1
inactive: cytotoxicity call [1] | cytotoxicity call [2] | growth inhibition call [3]

C[C@@H]1CCCCO[C@@H](CN(C)Cc2ccc(C(F)(F)F)cc2)[C@@H](C)CN([C@H](C)CO)C(=O)c2cc(NS(=O)(=O)c3cn(C)cn3)ccc2O1
inactive: cytotoxicity call [1] | cytotoxicity call [2] | growth inhibition call [3]

COc1cccc(C#Cc2ccc3c(c2)O[C@H](CN(C)C(=O)CN2CCOCC2)[C@H](C)CN([C@@H](C)CO)S3(=O)=O)c1
inactive: cytotoxicity call [1] | cytotoxicity call [2] | growth inhibition call [3]

C[C@@H]1CCCCO[C@@H](CN(C)S(=O)(=O)c2cccs2)[C@H](C)CN([C@H](C)CO)C(=O)c2cc(NC(=O)Nc3cccc4ccccc34)ccc2O1
inactive: cytotoxicity call [1] | cytotoxicity call [2] | growth inhibition call [3]

C[C@@H]1CCCCO[C@H](CN(C)C(=O)NC2CCCCC2)[C@@H](C)CN([C@H](C)CO)C(=O)c2cc(NS(=O)(=O)c3ccc(Cl)cc3)ccc2O1
inactive: cytotoxicity call [1] | cytotoxicity call [2] | growth inhibition call [3]

COc1ccc(CN(C)C[C@H]2Oc3c(NC(=O)c4ccc(-c5nccs5)cc4)cccc3C(=O)N([C@@H](C)CO)C[C@H]2C)cc1
inactive: cytotoxicity call [1] | cytotoxicity call [2] | growth inhibition call [3]

C[C@@H]1CN([C@@H](C)CO)C(=O)Cc2cc(NC(=O)c3ccncc3)ccc2O[C@@H]1CN(C)S(=O)(=O)c1cn(C)cn1
inactive: cytotoxicity call [1] | cytotoxicity call [2] | growth inhibition call [3]

COc1ccc(NC(=O)Nc2ccc3c(c2)C(=O)N([C@H](C)CO)C[C@@H](C)[C@@H](CN(C)S(=O)(=O)c2cn(C)cn2)O3)cc1
inactive: cytotoxicity call [1] | cytotoxicity call [2] | growth inhibition call [3]

O=C(C[C@H]1CC[C@H]2[C@@H](COC[C@@H](O)CN2C(=O)c2ccncc2)O1)NCc1ccc(-c2ccccc2)cc1
inactive: cytotoxicity call [1] | cytotoxicity call [2] | growth inhibition call [3]

C[C@H](CO)N1C[C@H](C)[C@H](CN(C)S(=O)(=O)c2ccc(F)cc2)Oc2c(NC(=O)c3cnccn3)cccc2C1=O
inactive: cytotoxicity call [1] | cytotoxicity call [2] | growth inhibition call [3]

O=C1O[C@H](c2ccccc2)[C@H](c2ccccc2)N2[C@H]1[C@@H](C(=O)Nc1nc3ccccc3s1)[C@]1(C(=O)Nc3ccc(C#CC4(O)CCCCCC4)cc31)[C@H]2c1ccccc1OCCO
inactive: cytotoxicity call [1] | cytotoxicity call [2] | growth inhibition call [3]

Cc1noc(C)c1N
inactive: cytotoxicity call [1] | cytotoxicity call [2] | growth inhibition call [3]

C[C@@H]1CCCCO[C@H](CN(C)Cc2ccc(C(=O)O)cc2)[C@@H](C)CN([C@@H](C)CO)C(=O)c2cc(NC(=O)CCC(F)(F)F)ccc2O1
inactive: cytotoxicity call [1] | cytotoxicity call [2] | growth inhibition call [3]

C[C@H]1CN([C@@H](C)CO)C(=O)Cc2cc(N(C)C)ccc2O[C@H]1CN(C)C(=O)Nc1ccc2c(c1)OCO2
inactive: cytotoxicity call [1] | cytotoxicity call [2] | growth inhibition call [3]

O=C(C[C@H]1C[C@H]2c3cc(NC(=O)c4cccnc4)ccc3O[C@H]2[C@H](CO)O1)NCc1cc(F)ccc1F
inactive: cytotoxicity call [1] | cytotoxicity call [2] | growth inhibition call [3]

Cc1noc(C)c1NC(=O)N(C)C[C@@H]1Oc2ccc(NC(=O)Cn3cnnn3)cc2C(=O)N([C@H](C)CO)C[C@H]1C
inactive: cytotoxicity call [1] | cytotoxicity call [2] | growth inhibition call [3]
